Data taken from PubChem BioAssay AID1345083 (National Center for Advancing Translational Sciences (NCATS), 2018).
Where “and” joins values, the source holds several entries; their conditions need not be identical. Equal values may be shown once. The whole screen tested about 94,000 compounds, of which about 6,200 (6.6%) were called active. Inconclusive results, whose numbers are uncertain, are shown with a selection of clear calls. The call rests on the fitted dose curve; in most records, active means well fitted inhibition curve with a large enough effect; inconclusive means small, poorly fitted or top-dose-only effect; inactive means flat fitted curve, though single readings scatter. Where the call is inconclusive, the potency comes from a doubtful curve fit.

assay: Cytotoxic Profiling in HEK 293 Cell Line of Diverse Libraries Using Quantitative High-Throughput Screening; settings: HEK 293 viability, ATP luminescence (CellTiter-Glo), 48-72 h; activity change, negative = cytotoxicity: at 115 µM (top of the series) unless noted; series mostly up to 115 µM; further: nearly all actives have a fitted effect of over 60% in size
Procedure, shortened: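 Pintool-delivered compounds were incubated with HEK 293 cells (250 cells/well) at 37 degree Celsius for 48 or 72 hr. ATP-dependent luminescence (CellTiter-Glo) then reported remaining viable cells.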
On the % scale 0 is the no-effect control and ±100 the full control effect; potency means the concentration at half of the fitted maximal effect; tags describe the fitted curve by direction and shape.

SMILES | activity change, negative = cytotoxicity | Potency | outcome
CC1=C[C@@H](CC#N)[C@H](C(C)C)C[C@H]1CC(=O)N1CCN(C)CC1 | inactive: -28.2% [at 172 µM] | – | –
CC(C)(C)CC(=O)Nc1nc2c(s1)C[C@@H]1[C@](C)(CO)[C@H](O)CC[C@@]1(C)[C@@H]2CC(=O)Nc1ccccc1 | – | inconclusive: 44.7 µM [inhibitor, partial curve] | –
CN1C[C@@H](NC(=O)c2ccc(C(C)(C)C)cc2)C[C@H]1c1nc(-c2ccc3c(c2)OCO3)no1 | – | inconclusive: 39.8 µM [inhibitor, partial curve, poor fit] | –
O=C1c2c(nc(COc3ccc4c(c3)OCO4)n2Cc2ccccc2)NCCN1Cc1ccccc1 | – | active: 44.7 µM | –
COc1ccc(-c2nc3ccncc3[nH]2)cc1 | – | active: 20 µM and inconclusive: 12.6 µM [inhibitor, full curve, poor fit] | –
O=C(O)CCn1ncc2cc(OCC3CCN(C(=O)CC4CC4)CC3)ccc21 | inactive: 2.79% [at 172 µM] | – | –
CNc1ncc(C(=O)N2CCCC(c3[nH]ncc3-c3ccc(F)cc3)C2)cn1 (stereo not drawn) | inactive: -9.73% | – | –
COc1ccc(CCNC(=O)C2CN(C3CCCC3)C(=O)N2)cc1 (stereo not drawn) | – | – | inactive [at 172 µM]
COc1ccc(-c2nc(CC3CCN(C(=O)c4n[nH]c(=O)c5ccccc45)C3)no2)cc1 (stereo not drawn) | – | active: 31.6 µM | –
O=C(Nc1ccc(Cl)cc1)NC1CCN(Cc2ccc(-c3ccsc3)cc2)C1 (stereo not drawn) | – | inconclusive: 39.8 µM [inhibitor, full curve] | –
Cc1ccc(C(=O)NC2CCN(c3ccc4nnc(C)n4n3)CC2)cc1 | – | – | inactive
CN1CCC(N2C[C@@H](CO)[C@H](c3nc(-c4ccncc4)no3)C2)CC1 | inactive: 1.85% | – | –
O=C(NCc1ccccc1Cl)C1CCN(C(=O)c2ncn3c2COC(c2ccc(F)cc2)C3)CC1 (stereo not drawn) | inactive: -0.262% | – | –
COc1cccc(CCC(=O)N2CCCC(Cc3nc(C4CCOCC4)no3)C2)c1 (stereo not drawn) | inactive: -9.67% | – | –
C[C@@]12C(=O)N(CC3CC3)c3ccccc3[C@@H]1[C@@H](C(N)=O)CN2C(=O)c1cc2ccccc2s1 | – | inconclusive: 35.5 µM [inhibitor, partial curve, poor fit] | –
O=C1[C@H]2CN(Cc3cccc(Cl)c3F)C[C@H]2C(=O)N1CCc1ccccc1 | – | inconclusive: 89.1 µM [inhibitor, single point] | –
CC1CCN(C(=O)C[C@@H]2O[C@H](CNC(=O)C3CC3)[C@@H](O)[C@H]2O)CC1 | inactive: 3.06% [at 172 µM] | – | –
C[C@H]1[C@@H]2[C@@H](O)C([C@H](C)C(=O)NCc3ccco3)CC[C@@]2(C)CC[C@@H]1NC(=O)c1ccccn1 (stereo partly drawn) | – | inconclusive: 50.1 µM [inhibitor, partial curve, poor fit] | –
COCCNC(=O)c1cc(-c2ccccc2OC)c2cccn2n1 | – | inconclusive: 100 µM [inhibitor, partial curve, poor fit] | –
CC1CCCN1c1ncnc2c1CN(c1ccc(Cl)cc1)C(=O)CN2C (stereo not drawn) | inactive: -11.7% | – | –
Cn1cc(CN2CC[C@@H](c3ccc4c(c3)OCO4)[C@H](O)C2)c2ccccc21 | – | inconclusive: 56.2 µM [inhibitor, partial curve, poor fit] | –
CN(Cc1ccccc1C(F)(F)F)S(=O)(=O)c1cccc(C(F)(F)F)c1 | – | inconclusive: 35.5 µM [inhibitor, partial curve, poor fit] | –

SMILES | activity change, negative = cytotoxicity | Potency | outcome
O=C1CCN(C(=O)CN2CCCCCC2)CCCC(c2nc(-c3cccnc3)no2)CCN1 (stereo not drawn) | inactive: 3.14% | – | –
O=C1NCN(Cc2ccc(Cl)cc2)C12CCN(Cc1cccc3ccccc13)CC2 | – | inconclusive: 89.1 µM [inhibitor, single point] | –
COCC1CN(Cc2ccccc2)[S+](=O)([O-])c2cccnc2O1 (stereo not drawn) | – | inconclusive: 44.7 µM [inhibitor, partial curve, poor fit] | –
CO[C@@H]1COCC[C@H]1NC(=O)CCSc1ccc2c(c1)OCCO2 | inactive: -14.9% | – | –
COc1ccccc1CNC(=O)c1cc2cn(C3CC3)cc2s1 | – | inconclusive: 89.1 µM [inhibitor, single point] | –
COc1cccc(C(=O)N2CCC(N3C[C@H](O)C[C@H]3C(=O)NCc3cccc(C)c3)CC2)c1 | inactive: -10.3% | – | –
c1ccc(-c2cnc(Nc3ccc(N4CCOCC4)cc3)c3c2CCO3)nc1 | – | inconclusive: 112 µM [inhibitor, single point] | –
CCOc1ccccc1C1NC(=O)N(CC(=O)Nc2ccc(C)c(Cl)c2)C2=C1C(=O)OC2 (stereo not drawn) | – | inconclusive: 50.1 µM [inhibitor, partial curve, poor fit] | –
CCc1nc(-c2c3n(c(=O)n(Cc4ccccc4C(F)(F)F)c2=O)CCCC3)no1 | inactive: -0.0448% | – | –
O=C(C1CCN(Cc2ccccc2-c2cccnc2)CC1)N1CCCC1 | – | inconclusive: 126 µM [inhibitor, single point] | –
Cc1ccc(C(=O)N2CCCC(n3cc(-c4noc(C)n4)nn3)C2)cc1 (stereo not drawn) | inactive: -2.79% | – | –
CCOCCNC(=O)CNC(=O)c1ccc(-c2cnc3ccccc3c2)cc1 | – | inconclusive: 89.1 µM [inhibitor, single point] | –
O=C(NC1CC1)c1cn2cc(-c3ccc(C(F)(F)F)cc3)sc2n1 | inactive: -22.2% | – | –
O=C(NCc1cccc(C(F)(F)F)c1)c1cn2cc(-c3cccc(C(F)(F)F)c3)sc2n1 | inactive: -14.3% | – | –
Cc1ccc(S(=O)(=O)N(C)Cc2ccc(F)cc2)cc1 | – | inconclusive: 126 µM [inhibitor, single point] | –
Cn1nc(-c2nncn2CC2CC2)c2c1CCN(C(=O)c1cn[nH]c1-c1ccccc1)C2 | – | – | inactive
NC(=O)c1ccc(OC2CCN(S(=O)(=O)c3ccc(F)cc3)CC2)nc1 | – | inconclusive: 56.2 µM [inhibitor, partial curve, poor fit] | –
COc1ccc(S(=O)(=O)N2CCc3c(C(=O)NCCN(C)C)cccc32)cc1 | – | inconclusive: 20 µM [inhibitor, full curve, poor fit] | –
O=C(N[C@@H]1CN(Cc2ccccc2)C[C@H]1CO)c1ccc(=O)[nH]c1 | inactive: -7.05% | – | –
COc1ccc2c(c1)c(CN1CCc3nn(C)c(=O)n3CC1)cn2C | – | inconclusive: 17.8 µM [inhibitor, full curve, poor fit] | –
COc1ccc2cc(C(=O)N3C[C@@H](Oc4ccccc4)C[C@H]3C(=O)N3CCOCC3)[nH]c2c1 | – | inconclusive: 50.1 µM [inhibitor, partial curve, poor fit] | –
